According to the supplement of paper PMC3334620:
The full ranking holds about 33,000 sequences; the median of “E-score (-0.5 to 0.5)” is about -0.011, and the highest 2% start at about 0.28. This is one part of the list.

Target: T1, Gcr1 (UniProt P07261)
T1 sequence: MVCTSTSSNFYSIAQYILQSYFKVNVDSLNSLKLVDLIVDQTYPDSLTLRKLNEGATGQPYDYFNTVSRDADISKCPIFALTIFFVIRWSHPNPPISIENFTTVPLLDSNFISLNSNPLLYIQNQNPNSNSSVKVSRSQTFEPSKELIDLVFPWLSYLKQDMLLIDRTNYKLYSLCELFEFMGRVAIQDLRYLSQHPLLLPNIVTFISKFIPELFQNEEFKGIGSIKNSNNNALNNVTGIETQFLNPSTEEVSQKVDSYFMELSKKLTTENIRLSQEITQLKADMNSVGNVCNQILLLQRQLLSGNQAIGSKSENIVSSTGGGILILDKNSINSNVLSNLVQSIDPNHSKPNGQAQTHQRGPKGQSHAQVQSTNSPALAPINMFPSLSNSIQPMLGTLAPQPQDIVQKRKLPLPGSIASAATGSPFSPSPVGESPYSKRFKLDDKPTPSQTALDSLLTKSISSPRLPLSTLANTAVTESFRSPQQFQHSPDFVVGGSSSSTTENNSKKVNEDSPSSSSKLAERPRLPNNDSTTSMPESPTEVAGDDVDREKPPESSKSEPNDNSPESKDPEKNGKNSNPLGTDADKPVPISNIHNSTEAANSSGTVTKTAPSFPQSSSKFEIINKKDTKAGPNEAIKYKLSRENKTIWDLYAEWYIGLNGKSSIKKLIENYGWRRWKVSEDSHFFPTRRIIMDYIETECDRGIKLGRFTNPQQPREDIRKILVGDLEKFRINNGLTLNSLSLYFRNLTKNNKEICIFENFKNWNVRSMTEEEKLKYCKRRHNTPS
Experiment: PBM E-score (8-mer binding enrichment) (E-score (-0.5 to 0.5)); higher = stronger / more preferred TF binding; most listed sequences are background and not binding sites
Conditions: protein concentration: 100 nM; construct: GST-full length
Method in brief: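 E-scores (a modified Wilcoxon-Mann-Whitney statistic) were assigned by the Universal PBM Analysis Suite to every ungapped eight-base word pooled with its reverse complement. The input came from universal all-10-mer Agilent arrays made double-stranded by primer extension and probed with GST-tagged yeast transcription factors at about 100-200 nM. Fluorescent anti-GST detected bound protein, and masliner normalised the scans.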

| Sequence | PBM E-score |
| --- | --- |
| ACGACTCG | -0.0515 |
| AGTAGGCA | 0.0213 |
| AGTGACAA | -0.177 |
| CCTCTCCG | 0.0712 |
| CCCAAAGC | -0.00377 |
| AGTAACCC | -0.201 |
| TTACGAAA | 0.147 |
| AAGCCATT | 0.00968 |
| AACTATTG | 0.0588 |
| CCCTCAAC | -0.0626 |
| CGATATCG | -0.149 |
| ACAGAAAC | 0.12 |
| CGTATCTA | 0.0661 |
| CAGGTAAC | 0.0272 |
| AGGAGTGC | -0.0158 |
| GAAACCTC | 0.0885 |
| AGATGAGG | -0.0257 |
| ACGGTCGG | -0.285 |
| TGATCGCA | -0.196 |
| CTAGAAAC | 0.158 |
| GGTGCCGA | 0.285 |
| AAGAAAGA | -0.0207 |

| Sequence | PBM E-score |
| --- | --- |
| AATGCCCT | -0.184 |
| CCATGTAG | 0.106 |
| ATCTGACA | -0.179 |
| AGCTCTCG | -0.166 |
| ACCGCCGT | -0.159 |
| TAACCCTA | -0.112 |
| GCGTAGCA | 0.0286 |
| GAGGTCGC | -0.055 |
| CGAGACTC | -0.0581 |
| GACCGGGC | -0.161 |
| AGTACCGG | -0.0999 |
| AGAATACC | 0.139 |
| CTAAGTAG | 0.127 |
| AACTCATT | -0.0827 |
| CATGCATG | -0.186 |
| AGTGGCCA | -0.182 |
| TAGTTTAA | 0.0204 |
| TGTAGCAA | -0.0217 |
| GCTCACCA | -0.201 |
| AAGCTTCC | 0.353 |
| GGGCAGGA | -0.0275 |
| ATTATGTC | 0.0363 |

| Sequence | PBM E-score |
| --- | --- |
| CTGTAGCC | -0.0873 |
| GAATCGAC | -0.0311 |
| CTAACCTA | 0.178 |
| GAGACTGA | -0.00319 |
| CGCTTACA | 0.0552 |
| GCCCATAA | -0.144 |
| AATTACCA | 0.0239 |
| AAAAGTGT | -0.135 |
| GGGACGTA | -0.11 |
| ATACGTAT | 0.284 |
| AACGATTA | 0.0433 |
| ATCGGCGA | -0.0387 |
| ATAGATTC | 0.114 |
| ACCCTGCA | 0.00618 |
| ATGGCACG | -0.0809 |
| CAACATGG | -0.0644 |
| GCTCCCCA | -0.0939 |
| CTTGGGCA | -0.0858 |
| ATAGATCC | -0.127 |
| AGACGAGA | -0.111 |
| CCTCTAAC | 0.191 |
| GGCTAAAA | -0.0962 |

| Sequence | PBM E-score |
| --- | --- |
| ACTGACAT | 0.0661 |
| CGAATGAG | -0.0106 |
| ATTTTACG | 0.337 |
| AACTTTAT | 0.0964 |
| CAGTAATC | -0.024 |
| AGACAAAG | -0.0272 |
| ACGATCCA | -0.0924 |
| TAATAACA | 0.0838 |
| GCCATGTA | 0.0899 |
| GATAGTCC | -0.181 |
| AATTAGAT | 0.158 |
| GCATCGCA | -0.13 |
| GCCGAAAC | -0.0212 |
| AACGATAC | 0.0304 |
| CTTAGTCA | -0.199 |
| AAGCTACG | 0.0781 |
| GTATTGGA | 0.278 |
| GATTGAGA | 0.117 |
| AAGGTTGG | -0.0801 |
| CCACTCCG | 0.0815 |
